Data: the supplement of paper PMC4166925
± gives the standard deviation of the averaged measurements. The full ranking holds about 33,000 sequences; the median of “E-score (dimensionless, -0.5 to 0.5)” is about -0.046, and the highest 2% start at about 0.36. The list shows a part of the results.

Tested on: T1, SpTbr T-box DNA-binding domain (GST fusion)
T1 sequence: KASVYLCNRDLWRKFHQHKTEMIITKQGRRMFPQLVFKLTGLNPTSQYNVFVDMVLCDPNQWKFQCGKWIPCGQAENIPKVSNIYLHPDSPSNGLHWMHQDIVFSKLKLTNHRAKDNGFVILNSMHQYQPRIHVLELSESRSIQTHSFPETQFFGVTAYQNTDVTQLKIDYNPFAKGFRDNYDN
Assay: PBM E-score of 8-mer (E-score (dimensionless, -0.5 to 0.5)); Tbr is Tbrain of the sea star Patiria miniata (Pm) or the sea urchin Strongylocentrotus purpuratus (Sp); higher = stronger binding preference; most listed sequences are background and not binding sites
Settings: the construct has about 5 more residues each side
Outline: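 Primer extension turned Universal Agilent oligonucleotide arrays double-stranded. They were incubated with 200 nM protein in PBS (pH 7.5); the protein was a GST-fused Tbr T-box DNA-binding domain expressed in BL21 E. coli at 20 °C and purified on glutathione. Every ungapped 8-mer was scored from the scanned, quantified probe intensities, and the Universal PBM Analysis Suite gave each an enrichment E-score averaged over duplicate arrays.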

Sequence	PBM E-score of 8-mer
ATCACCTC	0.387 ± 0.0097
GTAGGGGA	-0.221 ± 0.017
ATGCCAAT	0.00685 ± 0.011
AGCGTCCC	-0.148 ± 0.0096
GAATAAAC	-0.177 ± 0.13
ACGCGACT	0.122 ± 0.059
GCGTGGTA	0.0125 ± 0.0024
ACGAGGAA	-0.124 ± 0.011
CCGTCGCA	0.122 ± 0.0018
CAATACGG	-0.202 ± 0.091
CATTCGGG	-0.1774 ± 0.001
AGCAAGTG	0.272 ± 0.03
ACTAGCTC	-0.225 ± 0.0097
CCGTCTCA	0.0549 ± 0.013
GCGCGTCA	0.265 ± 0.028
AATTTATA	-0.172 ± 0.016
CATGAAGG	-0.0262 ± 0.011
ATTGGAGG	0.00082 ± 0.053
CGACTACC	-0.0334 ± 0.062
ATGCGACC	0.0792 ± 0.023
GCATCCAA	-0.252 ± 0.048
CTTGTTAC	0.203 ± 0.006

Sequence	PBM E-score of 8-mer
ATGGTTAA	-0.161 ± 0.044
AAGGCCTT	-0.277 ± 0.097
ATCCTAGA	-0.254 ± 0.05
AGGGTACG	-0.0187 ± 0.047
ACAGTAGA	-0.0367 ± 0.079
CAGTAGGG	-0.121 ± 0.0042
ATAGTCGG	-0.131 ± 0.025
GGCGCGGA	0.193 ± 0.069
ACGTCCCC	-0.0424 ± 0.052
AGTGTGAC	0.445 ± 0.011
CAGTGCGA	0.386 ± 0.0039
CCGAAGCC	-0.24 ± 0.018
AGCTGATG	-0.127 ± 0.019
CCGGACTC	-0.225 ± 0.025
CAGTACAG	-0.111 ± 0.043
AATCCCCT	-0.167 ± 0.065
AATTAGTC	-0.181 ± 0.033
GCCCAACA	0.0923 ± 0.037
CAGGCTTC	-0.0859 ± 0.019
ACTGGTCA	-0.134 ± 0.026
GATTATAA	-0.145 ± 0.04
AGCGGTAC	0.0745 ± 0.046

Sequence	PBM E-score of 8-mer
AAAGGATA	-0.165 ± 0.0067
ATTGAGAG	-0.119 ± 0.047
AAGGGCAT	0.0223 ± 0.028
AGTCCGAT	-0.149 ± 0.061
AATCACAA	0.212 ± 0.018
GTCTCAAC	-0.0155 ± 0.044
CGGCTCAC	0.0994 ± 0.041
CCGGGGAA	-0.282 ± 0.02
CGCGAGCC	0.15 ± 0.081
AATGGAAA	-0.271 ± 0.031
GCAGAGAA	-0.328 ± 0.0058
GCCGGTCC	-0.235 ± 0.075
AGGCTTCC	-0.213 ± 0.078
CCCGTGAA	0.212 ± 0.014
TTGGTAAA	-0.22 ± 0.0026
GAATCGCC	0.0803 ± 0.041
CGGATGTA	-0.17 ± 0.018
AGGAGGCA	-0.182 ± 0.054
GTAGAAAA	-0.0889 ± 0.057
TGATCTAA	-0.12 ± 0.1
AGCCGATA	-0.0865 ± 0.011
GGTCTGAA	-0.234 ± 0.021

Sequence	PBM E-score of 8-mer
CTTGACTC	-0.225 ± 0.016
GCTGTGGA	0.151 ± 0.058
ACAGACGG	0.134 ± 0.036
AAATGGCC	-0.263 ± 0.029
ACTTACGG	-0.122 ± 0.027
ATGAGGCC	-0.252 ± 0.034
CAAAGGGA	-0.259 ± 0.0031
TGCGTTAA	0.208 ± 0.026
ACGGCGGA	-0.211 ± 0.039
AGTACCAA	-0.141 ± 0.0034
CCGGGCCC	-0.0921 ± 0.12
AGCACGTC	0.167 ± 0.0033
CACGGTTA	-0.0116 ± 0.056
CCATAGAA	-0.0852 ± 0.036
CAAATTCC	0.00189 ± 0.041
AACATCAC	0.208 ± 0.023
GGAATCGA	-0.00645 ± 0.086
GTATCACA	0.213 ± 0.0034
TTACAGAA	-0.0978 ± 0.033
ATACACAC	0.2321 ± 0.00076
